From PubChem BioAssay AID652104 (National Center for Advancing Translational Sciences (NCATS), 2013)
The whole screen tested about 410,000 compounds, of which about 7,200 (1.8%) were called active. The shares of active, inactive and inconclusive entries below differ from those in the screen. Calls follow the shape of the dose curve; as a rule, active = well fitted activation curve with a large enough effect; inconclusive = small, poorly fitted or top-dose-only effect, or another doubt; inactive = no such curve, though single readings can be large or run the other way. Where the call is inconclusive, the potency comes from a doubtful curve fit.

assay: qHTS of TDP-43 Inhibitors; details: TDP-43 expressing yeast growth rescue, BacTiter-Glo, 24 h; growth rescue (activation): at 46.1 µM (top of the series) unless noted; also: nearly all actives have a fitted effect of over 50% in size; as to growth rescue (activation): % of control where 0% means no effect
Summary of the method: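 In this qHTS, compounds that restore growth of yeast expressing TDP-43 appear as activators. Cells (OD600=0.02, galactose medium, raffinose-pregrown) are incubated with compound 24 hr at 30 deg C and growth is quantified by BacTiter-Glo.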
Potency is read from the fitted curve at half-maximal effect; tags tell the direction and shape of the fitted curve.

Potency, inconclusive:
Clc1cccc(Nc2nc(-c3cccnc3)cs2)c1 35.5 µM [activator, single point], CCOC(=O)c1sc(N(Cc2ccccc2)C(=O)CCl)nc1C 14.1 µM [activator, single point], c1ccc(-c2cn(CC3CCCCC3)nn2)cc1 17.8 µM [activator, partial curve], CCOC(=O)c1c(CC(C)C)csc1NC(=O)CCl 14.1 µM [activator, single point], COc1ccc2c(c1)c(C(=O)N/N=C/c1cccc(Br)c1)c(C)n2C 14.1 µM [activator, single point], N/C(=N\OC(=O)CN1C(=O)c2ccccc2C1=O)c1ccc(Cl)cc1 7.08 µM [activator, full curve, poor fit], S=C(NCc1ccco1)NC1CCCc2ccccc21 (stereo unspecified) 31.6 µM [activator, single point], CNC(=S)N1CCN(c2nc3ccccc3s2)CC1 31.6 µM [activator, partial curve], Cc1cc(C)c2nc3sc(C(=O)N4CCOCC4)c(N)c3cc2c1 11.2 µM [activator, partial curve], COc1ccc(S(=O)(=O)Nc2noc3ccccc23)cc1OC 0.501 µM [activator, partial curve, poor fit], COC(=O)c1ccsc1NC(=O)CCS(=O)(=O)c1ccccc1 11.2 µM [activator, partial curve], COc1ccc(CCNC(=O)c2cnc3scc(C)n3c2=O)cc1OC 11.2 µM [activator, partial curve], O=C(COC(=O)[C@@H]1CC(O)CN1S(=O)(=O)c1ccc2c(c1)OCCO2)Nc1cc(F)ccc1F (stereo partly specified) 0.316 µM [activator, full curve, poor fit], O=S(=O)(c1ccc(Br)cc1F)N1CC[C@H](O)C1 6.31 µM [activator, single point], Cc1cccc(N2CCN(C(=O)Cc3ccccc3[N+](=O)[O-])CC2)c1C 35.5 µM [activator, single point], C=CCn1c(SCc2cccc(C#N)c2)nnc1-c1ccccc1O 22.4 µM [activator, partial curve], O=C(/C=C/c1cn(-c2ccccc2)nc1-c1cccnc1)N1CCCCC1 22.4 µM [activator, partial curve], Oc1ccc(-c2nc3ccc(Cl)cn3c2Nc2ccc(Cl)cc2)cc1 5.62 µM [activator, partial curve, poor fit], O=C(COc1ccc(Cl)cc1)N1CCN(C(=O)c2ccccc2F)CC1 11.2 µM [activator, partial curve], O=C(NCc1cccs1)c1cccc2c(-c3ccc(F)c(F)c3)coc12 17.8 µM [activator, single point], CCOC(=O)[C@H]1[C@H]2COc3ccc(Cl)cc3[C@@H]2N2C(=O)CN(Cc3ccc(Cl)cc3)C(=O)[C@@]12C 35.5 µM [activator, single point], CCOc1ccc(C(=O)NC(=S)NC2CCCC2)cc1[N+](=O)[O-] 12.6 µM [activator, partial curve], Cc1cc(Nc2cccc(Cl)n2)n(-c2ccccc2)n1 12.6 µM [activator, single point], COc1ccc(-c2nc3sc(CCNC(=O)C(=O)Nc4ccc(OC)c(OC)c4)c(C)n3n2)cc1 5.01 µM [activator, partial curve], CC(=O)c1ccc(OC2(C)CCN(Cc3csc4ccccc34)C2)cc1 (stereo unspecified) 7.08 µM [activator, partial curve], O=C(NCCc1ccc(Cl)cc1)C1CCCN(c2ncnc3c2nc2n3CCCCC2)C1 (stereo unspecified) 14.1 µM [activator, single point], COc1cc(CN2C[C@@H](CO)O[C@@H](n3cnc4c(NC5CC5)ncnc43)C2)cc(OC)c1OC 10 µM [activator, partial curve, poor fit], O=C(C1CCC(Cn2c(=S)[nH]c3ccccc3c2=O)CC1)N1CCN(c2ccccc2)CC1 (stereo unspecified) 22.4 µM [activator, single point], CCOc1ccc(CCNC(=O)c2c(C)oc3ncn(CC(C)C)c(=O)c23)cc1OCC 35.5 µM [activator, partial curve, poor fit], O=C(O)c1cscc1-c1cccc2ccccc12 22.4 µM [activator, single point], O=C(c1ccc(Br)o1)N1CCN(c2ccc3nnc(-c4ccc(F)cc4)n3n2)CC1 0.562 µM [activator, full curve], O=C(C1CCCN(C2CC(=O)N(c3ccc(F)cc3)C2=O)C1)N1CCCC1 (stereo unspecified) 35.5 µM [activator, partial curve, poor fit], CCCCCc1nnc(NC(=O)c2ccc(=O)n(C)n2)s1 8.91 µM [activator, partial curve], Cc1ccc(CNC(=O)C2CCC(CNc3c(N4CCOCC4)c(=O)c3=O)CC2)cc1 (stereo unspecified) 3.16 µM [activator, single point], COc1ccc(Cc2nnc(N)s2)cc1 11.2 µM [activator, partial curve], O=C(NNC(=S)NC(=O)c1ccccc1)c1ccc([N+](=O)[O-])cc1 6.31 µM [activator, single point], CSc1ccc(CN2C(=O)C(F)(F)Oc3c(C(C)=O)cccc32)cc1 35.5 µM [activator, single point], Cc1cc2ncn(C(=O)N3CCC(C)CC3)c2cc1C 10 µM [activator, partial curve], Cc1ccc(C)c(CSC2=NCCN2S(=O)(=O)c2ccccc2)c1 8.91 µM [activator, full curve], Cc1ccc(SCC(=O)NN2C(=O)c3ccccc3C2=O)cc1 20 µM [activator, partial curve], COc1ccc(CCC(=O)OCC(=O)NCc2ccc(OC)c(OC)c2)cc1OC 31.6 µM [activator, partial curve, poor fit], CCOC(=O)CC(NC(=O)c1cc2ccccc2oc1=O)c1cccc([N+](=O)[O-])c1 (stereo unspecified) 2.51 µM [activator, full curve]

Potency, active:
CC(C)=NNc1nc(-c2ccc([N+](=O)[O-])cc2)cs1 12.6 µM, CCOC(=O)Cc1csc(NC(=O)COc2ccccc2OCC)n1 11.2 µM, COc1ccc(C=CC(=O)c2ccc(OC)c(OC)c2O)cc1OC 12.6 µM, CC(=O)c1ccc2c(c1)CC1(C2)Cc2cc3c(cc2C1)C(=O)CC3 (stereo unspecified) 15.8 µM, O=C(c1cc2c(Cl)nc3ccccc3c2s1)N1CCCCC1 35.5 µM, Cc1ccc(C(=O)O/N=C(\N)c2ccc(Br)cc2)cc1 3.98 µM, O=S(=O)(NCCc1csc(-c2ccc(C(F)(F)F)cc2)n1)c1ccc2c(c1)OCCO2 25.1 µM, O=C(CSc1nc2ccccc2n1Cc1cccc(F)c1)NCc1ccccc1 22.4 µM, S=C(c1cccs1)N1CCN(c2ccccc2)CC1 17.8 µM, CCOc1ccc(-c2[nH]ncc2-c2ccc(Cl)cc2)c(O)c1 35.5 µM

Growth rescue (activation), inconclusive:
Cc1onc(-c2ccccc2Cl)c1C(=O)OCc1nnc(-c2ccccc2)o1 47.6% [activator]

Growth rescue (activation), inactive:
CCc1ccc(OCCNC(=O)c2ccccc2SCc2ccccc2)cc1 -8.72%, CCN1CCN(C(=O)/C(C#N)=C/c2ccc(OC(F)F)cc2)CC1 10.9%, Cc1oc2cc3oc(=O)c(CCC(=O)NCCc4ccccc4F)c(C)c3cc2c1C -19%, O=C(Cc1coc2cc3c(cc12)CCC3)NCC1(N2CCCCC2)CCCCC1 19.5%, O=C(CSc1nnc(-c2cccnc2)n1Cc1ccccc1)N1CCOCC1 -17.2%, COc1ccc(Nc2nc(-c3ccc(OC)cc3)cs2)cc1 4.49%, CC(=O)c1ccccc1Oc1ncnc(N)c1[N+](=O)[O-] 0.415%, Cc1cc(C)cc(N(CC(=O)NCCc2ccc(Cl)cc2)S(=O)(=O)c2c(C)noc2C)c1 16.6%, COc1ccccc1NS(=O)(=O)c1ccc(OC)c(OC)c1 19%, CCc1ccc2ncc3c(-c4ccc(C)cc4)nn(CC(=O)NCc4ccccc4)c3c2c1 24.3%, COc1ccc(Cn2ccc3nc(C)c(C(=O)NCc4ccc(SC)cc4)cc3c2=O)cc1 17.4%, COc1ccc(-c2n[nH]c3c2CN(C(=O)c2ccc(OC)c(OC)c2)CC3)cc1 5.04%, O=C(CC(c1cccs1)N1Cc2ccccc2C1=O)Nc1ccc(F)cc1 (stereo unspecified) -19.1%, COc1ccc(OC)c(C2C(C(=O)Nc3ccc(C)cc3)=C(C)Nc3nnnn32)c1 (stereo unspecified) 26.4%, CN1CCN(C(=O)c2ccc3c(c2)N(Cc2ccc(C(F)(F)F)cc2)C(=O)c2ccccc2S3)CC1 -8.85%, Cc1cc2n(n1)C(c1ccco1)Nc1ccccc1-2 (stereo unspecified) 16.8%, CCc1ccc(NC(=O)CSc2nc(C)c(C(=O)Nc3ccccc3)c(-c3ccc(OC)c(OC)c3)c2C#N)cc1 25.8%, O=c1oc2ccccc2cc1-c1nc(-c2ccccc2)no1 -17.3%
